Over roughly 81,000 sequences, “one-hybrid fitness for binding parS DNA” has its median near -0.17; the highest 2% begin near 0.51. The list shows a part of the results.
B1: Caulobacter ParB omega fusion; a variant is named by its letters at X, in order, B8GW30 (parent)
chain: MESVVVGEPGMSEGRRGLGRGLSALLGEVDAAPAQAPGEQLGGSREAPIEILQRNPDQPRRTFREEDLEDLSNSIREKGVLQPILVRPSPDTAGEYQIVAGERAWRAAQRAGLKTVPIMVRELDDLAVLEIGIIENVQRADLNVLEEALSYKVLMEKFERTQENIAQTIGKSXSHVANXMRLLXLPDEVQSYLVSGELTAXHARAIAAAADPVALAKQIIEGGLSVRETEALARKAPNLSAGKSKGGRPPRVKDTDTQALESDLSSVLGLDVSIDHRGSTGTLTITYATLEQLDDLCNRLTRGI

Variants of: B1
Assay: one-hybrid fitness for binding parS DNA (scaled: cognate 1, non-cognate 0); higher = stronger binding
Conditions: with parS DNA site
Summary of the method: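 The reporter was HIS3, with the binding site 19 bp from the promoter, in E. coli USO used for bacterial one-hybrid selection of Caulobacter ParB libraries with four specificity codons randomised. Growth was on M9 lacking histidine, with 0.1 mM IPTG and 5 mM 3-AT, for 48 hours at 37°C. Illumina sequencing covered plasmids before and after selection; three replicate libraries were pooled and variants with under 10 reads dropped. A fitness score is the log change in variant-to-wild-type read ratio, rescaled to the cognate and non-cognate references.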

one-hybrid fitness for binding parS DNA, 0.338:
RRKP

one-hybrid fitness for binding parS DNA, 0.831:
RNLG

one-hybrid fitness for binding parS DNA, 1.02:
RCAC

one-hybrid fitness for binding parS DNA, 0.495:
RMEA

one-hybrid fitness for binding parS DNA, 0.966:
RSCG

one-hybrid fitness for binding parS DNA, 0.265:
EMKL

one-hybrid fitness for binding parS DNA, ≤ 0.2:
VDSF
GMSL
IPAK
NIYW
IKYR
PFYA
TDRT
PMRF
TFYC
TTYW
GVLD
PDGC
ARSW
GNSC
GYRI
PRFC
ARPA
DFMR
GKEG
PGRD
MQTR
AFNK
VMGS
EICR
QSGN
SCDT
ATAH
PDLG
NCRS
ITLY
SWQS
ECGR
QLGQ
WLSS
HRRK
VIKR
GTLY
FMHS
SYSL
APQP
MCVC
ADVG
QHAM
PQES
DCEC
LPFT
DVTC
KGSH
AFPS
RGEY
ADRV
INGN
MQAV
EPLT
LPHN
HWHC
RYFI
KYIR
AAKP
SRRY
FLVC
EGWG
PDMR
RPSL
VRPL
RTCR
QANF
DGCI
IPSG
MIQE
PQSR
SGKR
ENWL
WRNG
ECKS
ANET
PTRS
LVEY
RIRR
TSAL
CYRG
SADM
QSEQ
YRSK
MYQK
IWTE
YFKS
QLER
LEER
FKPC
HCMH
MDIS
RMEL
NFSR
FTTC
MNVE
MQND
RYNL
AGQT
PHSR
VSST
VTLR
PQAI
VRSC
MIPQ
MGCA
MTSY
GCML
HHES
FSPD
AEGE
MSPR
FAQR
DKWF
SIQY
IGYG
RWPV
RDGD
QHKS
AEIS
KNDC
HLSL
RFGP
DHQL
MTCG
YAFG
INLS
RLEI
DTEL
LGQM
IPVS
QHIG
CQFL
ACWS
TRYR
AAAP
SFMC
RSPY
RGRP
DGLW
RNLV
AHAE
RNHI
VCKG
FVAR
PSVQ
RSDV
PLNP
CTCG
EMFL
LKNR
QQDT
AARM
WKRT
QHAV
VEPR
SYSE
EMEG
GLRI
DPAI
QRTP
YLVF
MVLS
VDFE
ELCR
HVLN
YKQC
APLN
NLRN
YINR
GAHY
DVIF
RHHD
QDAC
DPHS
STHN
WTND
PMLT
SFQV
KMGK
RQDV
CQHC
LGGT
AIYA
DRYT
PHGA
TETA
SYTF
CLTS
AMRV
PNAR
VTWY
APRD
FYGS
QPPY
LYWG
FTQE
NYTT
PPGA
QMKS
LLSM
LSKL
KRWM
PIEV
QRPW
SAGK
NYPM
RWPW
RGQL
APTH
RTMV
WHVC
YDSW
AQKK
RHQH
GCFS
TAAL
NVWT
TTKN
ILAP
KGRT
PGIN
ILLD
FGAC
CIGV
AAAS
LTKQ
KTTK
NFDE
PPLQ
ATRT
KQLL
DFGS
SSVH
VGCG
RYMH
TKSV
IMCS
ASMV
QVSF
QLNG
KRRP
YKKC
AINK
RNIP
HSDI
GNTW
QTHE
HGLL
LRRK
SCWR
YGEP
QQRC
QPQE
ARHG
PACE
NEIL
CTWT
LFGT
LGRT
YSIW
YIGV
NGSC
MPGA
KHSL
TVEW
QGPV
QHPE
LEEV
RVSH
GVDR
ACEH
SDTI
NYGR
AFQR
ATKC
LRWV
HGLP
MHNR
DVNN
CGCG
SRSF
IWSG
RPTI
SYVR
CLRM
AQVE
NTQY
KPIK
EGWC
FPYL
YTLV
TVSY
RQVR
YATF

one-hybrid fitness for binding parS DNA, 0.43:
HRYS

one-hybrid fitness for binding parS DNA, 0.229:
WKKW

one-hybrid fitness for binding parS DNA, 0.499:
RAFY

one-hybrid fitness for binding parS DNA, 0.86:
RYNC

one-hybrid fitness for binding parS DNA, 0.248:
FRMW

Reference: a collection of fitness landscapes (doi:10.1016/j.celrep.2020.107928)
